Measured values reported in the supplement of paper PMC4723716.
± gives the uncertainty stated by the source. The full ranking holds about 9,900 compounds; the median of “viability index relative to DMSO control” is about 1, and the lowest 2% start at about 0.85. This is one part of the list.

System: Plasmodium falciparum NF54 stage V gametocytes
Experiment: viability index relative to DMSO control (fraction); higher = less gametocyte killing
Details: 2.5 µM, incubation time: 72 h
In short: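 In 1,536-well plates, 10 µl of serum-free medium holding P. falciparum NF54 stage V gametocytes (0.75% gametocytemia, 1.25% hematocrit) received compound at 2.5 µM for 72 hr at 37°C in low oxygen. After one to two hours with 3 µl of 2.5 µM MitoTracker Red CMXRos containing 0.13% saponin, red particles of 20–70 µm2 were counted in a single field per well. Viability index is reported as the particle count over the plate mean of wells treated with solvent only.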

[1] = library set: Broad Institute DOS

Row | Compound | viability index [1] | viability index (library set: Broad Institute Blood Stage)
1 | OC[C@@H]1[C@@H](c2ccc(-c3cccc(F)c3)cc2)[C@H]2CN(Cc3cncnc3)CCCCN12 | 1.01 ± 0.03 | 
2 | COc1ccccc1-c1cccc(-c2nc(C(=O)N3CCN(C)CC3)cc3c2[C@H](CCO)N([S@@](=O)C(C)(C)C)C3)c1 | 1.03 ± 0.032 | 
3 | OC[C@H]1[C@H](c2ccc(-c3cccnc3)cc2)[C@H]2CN(Cc3ccccn3)CCCCN21 | 0.854 ± 0.029 | 
4 | O=C(C1CC1)N1C[C@@H]2[C@H](c3ccccc31)[C@@H](CO)N2C(=O)c1ccccc1 | 1 ± 0.02 | 
5 | C[C@@H]1CCCCO[C@H](CN(C)S(=O)(=O)c2ccc(Cl)cc2)[C@H](C)CN([C@@H](C)CO)C(=O)c2cc(NC(=O)Nc3ccc(C(F)(F)F)cc3)ccc2O1 | 1.01 ± 0.1 | 
6 | O=C(C[C@@H]1CC[C@H](NC(=O)C2CCOCC2)[C@H](CO)O1)NCC1CCCCC1 | 1.11 ± 0.079 | 
7 | CC(=O)N1[C@H](CO)[C@@H](c2ccc(-c3ccc(C#N)cc3)cc2)C12CN(C(=O)C1CC1)C2 | 1.14 ± 0.045 | 
8 | COc1cccc(-c2ccc([C@H]3[C@H](CO)N4C(=O)CN(C(=O)c5cccnc5)C[C@@H]34)cc2)c1 | 0.984 ± 0.052 | 
9 | Cc1ccccc1S(=O)(=O)N1C[C@@H](O)COC[C@@H]2O[C@H](CC(=O)N3CCCCC3)CC[C@H]21 | 1 ± 0.013 | 
10 | C/C=C/c1ccc2n(c1=O)C[C@@H]1[C@@H](CO)[C@H](C(=O)NCc3ccccc3Cl)N(S(C)(=O)=O)[C@H]21.C/C=C\c1ccc2n(c1=O)C[C@@H]1[C@@H](CO)[C@H](C(=O)NCc3ccccc3Cl)N(S(C)(=O)=O)[C@H]21 | 0.977 ± 0.041 | 
11 | O=C(C[C@@H]1C[C@H]2c3cc(NC(=O)c4ccc5c(c4)OCO5)ccc3O[C@H]2[C@@H](CO)O1)NCCN1CCCCC1 | 1.1 ± 0.05 | 
12 | CN1C(=O)c2cc(NC(=O)Cc3cccs3)ccc2OC[C@H]2O[C@H](CC(=O)NCCc3ccncc3)CC[C@@H]21 | 1.1 ± 0.097 | 
13 | O=C(Nc1ccc(F)cc1)N1C[C@@H]2[C@H](c3ccccc31)[C@H](CO)N2C(=O)c1ccncc1 | 0.998 ± 0.073 | 
14 | Cc1ccccc1S(=O)(=O)N1CC(=O)N2[C@H](CO)[C@H](c3ccc(C#CCC4CCCC4)cc3)[C@H]2C1 |  | 0.918 ± 0.054
15 | CN1CCN(C(=O)c2cc3c(c(-c4cccc(Br)c4)n2)[C@@H](CCO)N([S@](=O)C(C)(C)C)C3)CC1 | 1.08 ± 0.019 | 
16 | COc1ccc2c3c([C@H](CO)N(CC4CC4)C[C@]33CCN(CC3)C(=O)c3cccc(F)c3)n(C)c2c1 | 0.994 ± 0.068 | 
17 | CCCNC(=O)N1[C@H](C#N)[C@@H](c2ccccc2-c2ccccc2F)[C@@H]1CO | 1.06 ± 0.018 | 
18 | O=C(c1cccnc1)N1CC(=O)N2[C@H](C1)[C@H](c1ccc(-c3ccccc3F)cc1)[C@@H]2CO | 1.05 ± 0.047 | 
19 | CN(C)CC(=O)N1CC(=O)N2[C@H](C1)[C@@H](c1ccc(C#Cc3cccnc3)cc1)[C@@H]2CO | 1.04 ± 0.062 | 
20 | CCS(=O)(=O)Nc1ccc2c(c1)C(=O)N(C)[C@@H]1CC[C@@H](CC(=O)NCc3ccc(OC)cc3)O[C@@H]1CO2 | 1.015 ± 0.01 | 
21 | C[C@H]1C/C=C/C[C@@H](c2ccc(F)cc2)NC(=O)[C@H](Cc2ccccc2)N(C)C(=O)c2ccccc2O1.C[C@H]1C/C=C\C[C@@H](c2ccc(F)cc2)NC(=O)[C@H](Cc2ccccc2)N(C)C(=O)c2ccccc2O1 | 1 ± 0.017 | 
22 | O=C(C[C@@H]1CC[C@@H]2[C@H](COC[C@H](O)CN2S(=O)(=O)c2cccc(Cl)c2)O1)N1CCOCC1 | 1.04 ± 0.092 | 

Row | Compound | viability index [1] | viability index (library set: Broad Institute Blood Stage)
23 | O=C(Nc1cccc(Cl)c1)N[C@@H]1CC[C@H](CCn2cc(Cc3ccccc3)nn2)O[C@@H]1CO | 1.162 ± 0.0056 | 
24 | CCCC(=O)Nc1ccc2c(c1)C(=O)N(C)C[C@H](OC)[C@@H](C)CN(C(=O)c1ccccn1)[C@H](C)CO2 | 0.994 ± 0.035 | 
25 | C[C@@H]1CN([C@H](C)CO)C(=O)Cc2cc(N(C)C)ccc2O[C@H]1CN(C)C(=O)NC1CCCCC1 | 0.993 ± 0.12 | 
26 | Cc1noc(C)c1NC(=O)N1C[C@@H](O)COC[C@@H]2O[C@@H](CC(=O)N[C@@H]3CCN(Cc4ccccc4)C3)CC[C@H]21 | 1.04 ± 0.021 | 
27 | COc1ccc2c3c([C@H](CO)N(C[C@]33CCN(CC3)C(=O)Nc3ccccc3F)C(C)=O)n(C)c2c1 | 0.994 ± 0.067 | 
28 | C[C@H]1CCCCO[C@H](CN(C)S(C)(=O)=O)[C@@H](C)CN([C@@H](C)CO)C(=O)c2cc(NC(=O)NC3CCCCC3)ccc2O1 | 1.14 ± 0.055 | 
29 | Cc1noc(C)c1NC(=O)N(C)C[C@H]1Oc2cc(C#CCN(C)C)ccc2S(=O)(=O)N([C@H](C)CO)C[C@H]1C | 1.02 ± 0.083 | 
30 | CO[C@@H]1CN(C)C(=O)c2cc(NC(=O)c3ccc(F)cc3)ccc2OC[C@H](C)N(C(=O)CC2CC2)C[C@H]1C | 1.112 ± 0.0054 | 
31 | CN1C[C@@H](O)COC[C@@H]2O[C@H](CC(=O)NC3CCCC3)CC[C@H]21 | 1.073 ± 0.0037 | 
32 | CC(C)NC(=O)N1CC(=O)N2[C@@H](CO)[C@H](c3ccc(/C=C/c4ccccc4)cc3)[C@@H]2C1 | 0.951 ± 0.03 | 
33 | CC(C)C#Cc1ccc([C@H]2[C@@H](CO)N3C(=O)CN(C(=O)Cc4ccccc4)C[C@H]23)cc1 | 0.848 ± 0.025 | 
34 | COc1cccc(C(=O)Nc2ccc3c(c2)C(=O)N(C)C[C@@H](OC)[C@H](C)CN(C(=O)C2CC2)[C@H](C)CO3)c1 | 1.061 ± 0.0025 | 
35 | C/C=C/c1ccc([C@H]2[C@@H](CO)N(C(=O)C3CCCC3)C23CN(S(C)(=O)=O)C3)cc1 | 1.058 ± 0.0091 | 
36 | C[C@@H]1CCCCO[C@@H](CN(C)Cc2ccncc2)[C@H](C)CN([C@H](C)CO)C(=O)c2cc(NC(=O)Cc3ccccc3)ccc2O1 | 1.06 ± 0.043 | 
37 | CNC[C@@H]1Oc2ccc(NC(=O)CCC(F)(F)F)cc2C(=O)N([C@@H](C)CO)C[C@H]1C | 1.02 ± 0.044 | 
38 | CCC(=O)Nc1ccc2c(c1)OC[C@H](C)N(Cc1ccccc1)C[C@@H](C)[C@H](OC)CN(C)C2=O | 1.01 ± 0.029 | 
39 | CNC[C@H]1OCc2cn(nn2)CCCC(=O)N([C@H](C)CO)C[C@H]1C | 1.01 ± 0.029 | 
40 | O=C(Nc1ccccc1)N1CC(=O)N2[C@H](CO)[C@H](c3ccc(C#CC4CCCCC4)cc3)[C@@H]2C1 | 0.96 ± 0.031 | 
41 | O=C(Nc1ccc(C(F)(F)F)cc1)Nc1ccc2c(c1)[C@H]1C[C@@H](CC(=O)N3CCc4ccccc4C3)O[C@H](CO)[C@H]1O2 | 0.981 ± 0.027 | 
42 | CCCNC(=O)N1CC2(C1)[C@H](c1ccccc1)[C@H](CO)N2Cc1ccc(Cl)cc1 | 1.099 ± 0.007 | 
43 | COCC(=O)Nc1ccc2c(c1)C(=O)N(C)[C@H]1CC[C@@H](CC(=O)NC3Cc4ccccc4C3)O[C@H]1CO2 | 1.14 ± 0.066 | 
